# Source: publication PMC5383425, “Differential CLE peptide perception by plant receptors implicated from structural and functional analyses of TDIF-TDR interactions” (PLoS ONE, 2017)
# These are yes or no findings as the source states them, for the method shown. Some entries that bind do so weakly or less than the wild type.
# T1: ecdTDR I399A mutant (Arabidopsis thaliana) (UniProt Q9FII5)
# T1 sequence: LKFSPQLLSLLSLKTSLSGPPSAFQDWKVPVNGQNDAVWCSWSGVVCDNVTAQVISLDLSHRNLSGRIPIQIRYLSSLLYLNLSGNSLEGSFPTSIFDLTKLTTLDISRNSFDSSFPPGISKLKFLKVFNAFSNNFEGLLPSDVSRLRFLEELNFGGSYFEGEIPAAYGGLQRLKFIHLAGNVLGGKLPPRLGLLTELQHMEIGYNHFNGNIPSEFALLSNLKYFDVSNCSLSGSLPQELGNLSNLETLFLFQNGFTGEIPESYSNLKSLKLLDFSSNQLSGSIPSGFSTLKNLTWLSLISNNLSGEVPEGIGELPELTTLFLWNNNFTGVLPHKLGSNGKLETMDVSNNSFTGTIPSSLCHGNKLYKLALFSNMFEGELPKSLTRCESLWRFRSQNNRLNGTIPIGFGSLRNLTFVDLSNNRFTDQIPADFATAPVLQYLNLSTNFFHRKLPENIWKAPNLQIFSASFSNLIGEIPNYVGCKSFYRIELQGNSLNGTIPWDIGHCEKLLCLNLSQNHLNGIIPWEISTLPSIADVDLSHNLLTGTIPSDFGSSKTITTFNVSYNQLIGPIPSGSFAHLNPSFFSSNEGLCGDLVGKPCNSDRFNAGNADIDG
# T2: ecdTDR K397A mutant (Arabidopsis thaliana) (UniProt Q9FII5)
# T2 sequence: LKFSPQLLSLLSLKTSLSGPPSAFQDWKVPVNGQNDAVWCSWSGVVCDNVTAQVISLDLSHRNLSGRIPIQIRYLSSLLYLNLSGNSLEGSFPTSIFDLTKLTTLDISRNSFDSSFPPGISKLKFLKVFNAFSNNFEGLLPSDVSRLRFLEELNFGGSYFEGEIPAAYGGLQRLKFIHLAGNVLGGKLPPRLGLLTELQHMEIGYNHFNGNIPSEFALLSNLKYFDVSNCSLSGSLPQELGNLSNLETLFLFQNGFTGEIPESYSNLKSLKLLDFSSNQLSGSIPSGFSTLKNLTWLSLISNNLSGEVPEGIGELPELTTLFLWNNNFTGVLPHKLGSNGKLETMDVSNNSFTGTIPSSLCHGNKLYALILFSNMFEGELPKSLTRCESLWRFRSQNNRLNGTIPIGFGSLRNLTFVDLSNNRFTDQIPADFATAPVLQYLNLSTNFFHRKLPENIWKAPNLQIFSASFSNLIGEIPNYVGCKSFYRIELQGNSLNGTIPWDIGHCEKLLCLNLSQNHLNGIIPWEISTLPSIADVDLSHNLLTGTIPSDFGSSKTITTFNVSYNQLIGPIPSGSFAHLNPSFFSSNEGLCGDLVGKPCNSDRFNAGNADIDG
# T3: ecdTDR S377A mutant (Arabidopsis thaliana) (UniProt Q9FII5)
# T3 sequence: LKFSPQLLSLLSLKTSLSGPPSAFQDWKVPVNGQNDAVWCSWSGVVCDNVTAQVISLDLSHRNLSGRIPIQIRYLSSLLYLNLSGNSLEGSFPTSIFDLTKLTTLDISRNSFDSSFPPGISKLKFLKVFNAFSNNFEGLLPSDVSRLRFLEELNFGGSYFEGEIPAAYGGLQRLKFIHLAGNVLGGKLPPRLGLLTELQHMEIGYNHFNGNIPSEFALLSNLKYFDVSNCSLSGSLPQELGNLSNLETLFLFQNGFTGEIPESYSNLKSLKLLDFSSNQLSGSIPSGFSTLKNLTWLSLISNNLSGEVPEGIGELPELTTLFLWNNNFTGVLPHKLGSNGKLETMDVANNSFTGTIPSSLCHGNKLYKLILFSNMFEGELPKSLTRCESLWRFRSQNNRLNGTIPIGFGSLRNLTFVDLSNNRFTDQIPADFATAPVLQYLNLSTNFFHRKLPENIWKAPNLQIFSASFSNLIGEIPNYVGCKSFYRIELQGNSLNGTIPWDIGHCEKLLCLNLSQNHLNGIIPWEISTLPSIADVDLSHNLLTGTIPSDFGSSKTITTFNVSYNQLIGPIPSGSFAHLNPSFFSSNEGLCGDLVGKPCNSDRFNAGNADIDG
# T4: TDR-S305A/W353A/R421A/R423A quadruple mutant (ecdTDR) (Arabidopsis thaliana) (UniProt Q9FII5)
# T4 sequence: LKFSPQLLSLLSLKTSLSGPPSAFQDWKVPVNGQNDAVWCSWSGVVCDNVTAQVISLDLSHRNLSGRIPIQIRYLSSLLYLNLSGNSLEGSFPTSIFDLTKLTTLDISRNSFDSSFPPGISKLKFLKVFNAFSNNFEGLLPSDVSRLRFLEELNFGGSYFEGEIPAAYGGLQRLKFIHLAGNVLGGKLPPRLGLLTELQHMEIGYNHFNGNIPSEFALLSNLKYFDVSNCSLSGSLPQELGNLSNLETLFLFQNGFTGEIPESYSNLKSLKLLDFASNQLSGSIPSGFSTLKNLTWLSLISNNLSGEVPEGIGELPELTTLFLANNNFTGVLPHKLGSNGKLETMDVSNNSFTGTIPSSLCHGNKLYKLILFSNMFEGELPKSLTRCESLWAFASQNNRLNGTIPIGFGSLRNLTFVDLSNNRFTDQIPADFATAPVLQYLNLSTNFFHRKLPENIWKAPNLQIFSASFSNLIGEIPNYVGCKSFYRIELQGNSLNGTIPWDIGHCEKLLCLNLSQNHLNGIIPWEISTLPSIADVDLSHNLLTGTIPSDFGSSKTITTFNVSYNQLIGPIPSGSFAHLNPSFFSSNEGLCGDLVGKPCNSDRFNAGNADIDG
# T5: ecdTDR mutant with Y234, F279, F281, R421 and R423 replaced by alanine (Arabidopsis thaliana) (UniProt Q9FII5)
# T5 sequence: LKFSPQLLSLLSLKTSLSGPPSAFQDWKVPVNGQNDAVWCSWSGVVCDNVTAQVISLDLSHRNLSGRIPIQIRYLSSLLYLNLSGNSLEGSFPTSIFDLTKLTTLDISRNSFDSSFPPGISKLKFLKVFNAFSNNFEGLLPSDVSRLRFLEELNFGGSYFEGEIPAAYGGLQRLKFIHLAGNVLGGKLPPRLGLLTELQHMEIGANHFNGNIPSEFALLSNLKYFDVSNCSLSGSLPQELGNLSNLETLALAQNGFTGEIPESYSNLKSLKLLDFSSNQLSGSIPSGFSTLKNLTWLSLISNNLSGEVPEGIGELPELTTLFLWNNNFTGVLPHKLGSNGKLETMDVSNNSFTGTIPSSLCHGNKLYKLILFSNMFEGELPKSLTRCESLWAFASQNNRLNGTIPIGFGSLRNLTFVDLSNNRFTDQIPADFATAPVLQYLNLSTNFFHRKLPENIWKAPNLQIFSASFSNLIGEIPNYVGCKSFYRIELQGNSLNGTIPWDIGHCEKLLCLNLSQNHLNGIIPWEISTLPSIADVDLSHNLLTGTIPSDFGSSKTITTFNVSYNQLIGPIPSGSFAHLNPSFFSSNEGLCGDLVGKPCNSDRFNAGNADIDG
# Experiments:
# [1] = biological target: T1, ecdTDR I399A mutant (Arabidopsis thaliana); test: ITC; 0.5–1 mM peptide titrated into 10–40 μM ecdTDR; 25°C; 10 mM sodium citrate, 100 mM NaCl, pH 5.5; fitted to one set of binding sites; MicroCal Auto-iTC200; both purified
# [2] = biological target: T2, ecdTDR K397A mutant (Arabidopsis thaliana); test: as above
# [3] = biological target: T3, ecdTDR S377A mutant (Arabidopsis thaliana); test: as above
# [4] = biological target: T4, TDR-S305A/W353A/R421A/R423A quadruple mutant (ecdTDR) (Arabidopsis thaliana); test: condition: 0.5–1 mM peptide titrated into 10–40 μM ecdTDR; ITC; 0.5–1 mM peptide titrated into 10–40 μM ecdTDR; 25°C; 10 mM sodium citrate, 100 mM NaCl, pH 5.5; fitted to one set of binding sites; MicroCal Auto-iTC200; both purified
# [5] = biological target: T5, ecdTDR mutant with Y234, F279, F281, R421 and R423 replaced by alanine (Arabidopsis thaliana); test: as above
binder,measurement,setting,value
HEVPSGPNPISN (hydroxyproline at 4 and 7) [Tracheary Element Differentiation Inhibitory Factor (TDIF) peptide],binding,[1],binds
same,binding,[2],binds
same,binding,[3],binds
same,binding,[4],no binding
same,binding,[5],no binding
